# Reference: the supplement of paper PMC3334620
# In all, about 33,000 sequences were measured (“E-score (-0.5 to 0.5)”: median about -0.053, highest 2% from about 0.37 on). The list shows a part of the results.
# Molecular target: Hap1 (UniProt P0CE41)
# Experiment: PBM E-score (8-mer binding enrichment) (E-score (-0.5 to 0.5)); higher = stronger / more preferred TF binding; most listed sequences are background and not binding sites
# Conditions: protein concentration: 200 nM; construct: GST-DNA-binding domain
# How it was run: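 Bound GST-tagged yeast transcription factors, applied at about 100-200 nM to double-stranded universal all-10-mer Agilent arrays, were detected with fluorescent anti-GST. Scans were normalised with masliner. A modified Wilcoxon-Mann-Whitney statistic, the E-score, was assigned to each ungapped eight-base word pooled with its reverse complement by the Universal PBM Analysis Suite.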
# UniProt P0CE41, sequence (P0CE41 whole entry): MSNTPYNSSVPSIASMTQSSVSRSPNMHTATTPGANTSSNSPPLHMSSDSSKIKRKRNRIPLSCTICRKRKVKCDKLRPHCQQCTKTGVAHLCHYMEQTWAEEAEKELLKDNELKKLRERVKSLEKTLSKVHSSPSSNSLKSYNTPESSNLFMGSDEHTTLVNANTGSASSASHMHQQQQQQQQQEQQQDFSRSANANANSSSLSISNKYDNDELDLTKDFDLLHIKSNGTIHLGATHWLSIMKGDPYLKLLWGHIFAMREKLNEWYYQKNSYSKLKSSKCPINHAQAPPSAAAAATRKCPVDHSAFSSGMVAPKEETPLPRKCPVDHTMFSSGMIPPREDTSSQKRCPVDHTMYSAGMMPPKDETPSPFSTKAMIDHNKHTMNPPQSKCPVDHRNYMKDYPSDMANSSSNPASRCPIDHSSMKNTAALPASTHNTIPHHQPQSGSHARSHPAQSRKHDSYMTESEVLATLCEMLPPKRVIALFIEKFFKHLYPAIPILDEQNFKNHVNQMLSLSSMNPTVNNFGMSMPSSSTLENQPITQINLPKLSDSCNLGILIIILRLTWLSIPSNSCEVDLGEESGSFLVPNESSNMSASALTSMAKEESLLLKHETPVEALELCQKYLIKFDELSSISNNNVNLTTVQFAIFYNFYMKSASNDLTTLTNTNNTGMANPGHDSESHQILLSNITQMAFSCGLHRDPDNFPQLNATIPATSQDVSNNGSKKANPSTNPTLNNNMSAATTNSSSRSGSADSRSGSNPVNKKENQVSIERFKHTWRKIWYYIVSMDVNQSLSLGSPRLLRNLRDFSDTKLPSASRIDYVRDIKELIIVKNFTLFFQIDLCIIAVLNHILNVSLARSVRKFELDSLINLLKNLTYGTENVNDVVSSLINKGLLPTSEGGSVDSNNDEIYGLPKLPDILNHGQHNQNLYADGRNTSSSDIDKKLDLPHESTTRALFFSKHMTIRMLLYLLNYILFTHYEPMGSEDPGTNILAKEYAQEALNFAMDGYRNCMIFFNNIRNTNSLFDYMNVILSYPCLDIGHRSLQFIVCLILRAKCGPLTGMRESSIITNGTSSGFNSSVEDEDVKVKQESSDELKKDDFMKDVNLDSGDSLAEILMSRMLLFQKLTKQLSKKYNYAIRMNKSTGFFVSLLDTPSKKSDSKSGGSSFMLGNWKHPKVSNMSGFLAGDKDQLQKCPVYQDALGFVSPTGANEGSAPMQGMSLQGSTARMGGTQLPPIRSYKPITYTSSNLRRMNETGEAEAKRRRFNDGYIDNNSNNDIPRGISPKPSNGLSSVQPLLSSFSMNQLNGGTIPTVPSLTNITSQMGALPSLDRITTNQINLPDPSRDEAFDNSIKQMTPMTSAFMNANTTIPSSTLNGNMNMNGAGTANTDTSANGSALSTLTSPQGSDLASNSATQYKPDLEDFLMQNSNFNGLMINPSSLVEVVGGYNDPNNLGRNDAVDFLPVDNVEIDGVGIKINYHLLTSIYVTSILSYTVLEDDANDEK
row,Sequence,PBM E-score
1,CAGTACGA,-0.0342
2,CTAGATTA,-0.148
3,ACCGAAAC,0.323
4,TCCAACGA,-0.239
5,CTTAGGGC,0.0704
6,ATACTAGA,-0.154
7,TTCCAAAA,-0.133
8,AACGACTG,-0.27
9,CGCGGGTA,0.142
10,AGCTGCAT,-0.254
11,CACCTACG,-0.0607
12,AAATTTCC,0.232
13,AGTAGGAT,-0.135
14,ATGAGTTA,-0.207
15,CAGAATTA,0.0222
16,CAGTGGCA,-0.241
17,AGGGATGA,-0.133
18,ACAAATGT,-0.00592
19,CAGCAAGG,-0.286
20,GAGGAAGA,-0.094
21,GTTCCATA,-0.0357
22,CCGCGCTA,0.11
23,ATCCTCTG,-0.187
24,AATTGCAT,-0.089
25,CTAGATAA,-0.192

row,Sequence,PBM E-score
1,CGAAGTAA,0.154
2,GCGATACA,0.0344
3,ATGGCCCC,0.0323
4,ATATCAAT,-0.0951
5,ACATCTGA,-0.226
6,AACACTAG,-0.103
7,ACGTGTAT,-0.151
8,ATACGGCA,0.0304
9,CGAGGCCC,0.214
10,GGACAACC,0.0161
11,ATCCATGC,-0.0967
12,CCAACGTA,-0.351
13,CCCTGAGA,-0.313
14,ACTGTGCC,-0.219
15,AAGATCCG,0.273
16,GGTTTAGA,-0.086
17,CTAACGAC,-0.254
18,CGTAAGAC,-0.0259
19,AAAGCCCT,-0.0264
20,GCGTCCCA,-0.0794
21,TAGTATAA,0.0717
22,ATCTGGGG,-0.257
23,TGAAACAA,-0.0836
24,TACGCAGA,0.0345
25,AACCTCCG,0.365

row,Sequence,PBM E-score
1,ATTCACTA,-0.0607
2,GAGCGGAC,0.217
3,TATATCGA,0.17
4,CTCGCGTA,-0.0418
5,GATGTGGC,-0.0304
6,GTGTACCA,-0.309
7,CCAGGACC,-0.0476
8,CGAAAGCA,0.155
9,GACTTCTC,-0.00925
10,CATTGTCA,-0.199
11,ATAGGGTC,-0.137
12,AGGTAGAC,-0.0678
13,CCAACCCC,-0.121
14,ACCATTAC,0.0302
15,CAACGTGG,-0.231
16,TGCACCCA,0.0334
17,GTTAGCTA,-0.175
18,CCGGAATA,0.357
19,GTTAAGCA,0.124
20,GCAGACAC,-0.0725
21,ATCAAATG,0.14
22,AGAATGCA,0.06
23,CGGCATGC,0.158
24,ACTAGGGG,-0.0734
25,TGCCTACA,-0.0234

row,Sequence,PBM E-score
1,GTGGTTAA,-0.165
2,GCGGGGAC,0.163
3,AGGTATAA,0.0317
4,CGTCGTGC,-0.145
5,AATGTAAA,0.0271
6,ATCCACAC,-0.162
7,TACTTCCA,0.053
8,CGTCGGTC,0.34
9,AAGTGTCG,-0.0516
10,ACTAATCG,0.209
11,GAGCACGA,-0.0347
12,CGCGCTAG,0.0264
13,GATGATCA,-0.0713
14,GCCATACA,-0.156
15,AGCTAGAT,-0.213
16,ATAGGAGA,-0.382
17,GGCCGTAA,0.377
18,CCCCTTGA,-0.109
19,TAGGTTCA,0.0751
20,AAGCAGGA,-0.00208
21,CCATATGG,-0.252
22,GGCCTTAA,0.255
23,TCTGCCAA,-0.294
24,TACCGGTA,0.441
25,GGGCTGTA,-0.0531

row,Sequence,PBM E-score
1,AGACGATA,-0.0095
2,AATGCGGA,0.256
3,CTGAGTCA,-0.202
4,AACCAAGT,-0.152
5,ATGTGACC,-0.0399
6,ATGAGAGA,-0.16
7,CCCCCAGC,-0.206
8,CATACCGA,0.176
9,AGACCTGC,-0.284
10,AAGACTTA,-0.257
11,AACCGAAA,0.231
12,AGTCTGCC,-0.238
13,GGTCCCAA,-0.0522
14,CGACTGGA,0.133
15,CCTGGTCA,-0.214
16,AAGGCCCA,-0.209
17,AGATCGTG,-0.158
18,CACGCATG,-0.136
19,AATCATCT,-0.0475
20,CACGGCGG,0.0847
21,CTATACGA,-0.078
22,ACCTATCA,-0.102
23,ACCTAGTA,-0.226
24,AAGATAAG,-0.138
25,TTCTGCAA,0.0316

row,Sequence,PBM E-score
1,ATATGCTC,0.177
2,ATACGCAT,-0.107
3,GGATGGAC,0.0142
4,CATTCTGA,-0.155
5,ACAGTTCA,-0.328
6,ATCACTGC,0.0681
7,CGCCTCCA,-0.0727
8,GAACGATC,0.0141
9,TCACTGGA,-0.122
10,CTACCCGC,0.0857
11,CCTCCCGA,0.0333
12,GTCTGTAA,-0.00254
13,CACCCTAA,-0.209
14,GCGCTCAA,-0.13
15,CTCGACTC,-0.162
16,GAAATTCC,0.182
17,ATGGTAAG,-0.209
18,ACCTACAA,-0.244
19,ACAGGTAC,-0.125
20,TATCAGGA,-0.1
21,CAAACATC,0.176
22,AAATAGTT,0.1
23,AACGCGCC,0.0817
24,GCGGACGC,0.0721
25,CCCATTGC,-0.105

row,Sequence,PBM E-score
1,AAATCAAT,-0.136
2,CGGCCCCG,0.274
3,AGGGTTAC,-0.212
4,CTATCTAA,-0.0249
5,GCAGGCAA,-0.107
6,AGTCCAGG,-0.197
7,AACAAGAT,0.0665
8,CAACCGCG,0.185
9,CGATGCAC,-0.113
10,GATCACAC,-0.172
11,GCTGTCAC,-0.18
12,CGGTTCCA,0.103
13,AGGGTTTC,0.083
14,CCCGGAGG,0.285
15,CACTCTAG,-0.126
16,AGAACGGG,0.0979
17,CTGAAAAA,-0.181
18,CCTTATTC,-0.214
19,ACAACGTA,-0.175
20,ACACCGCC,0.0685
21,GGCCCAAC,0.0978
22,GCTCTGAC,-0.333
